Measurements taken from the supplement of paper PMC10600219.
Structures can show the parent of a compound that is named as a salt. Over roughly 2,800 compounds, “cell viability relative to vehicle” has its median near 0.98; the lowest 2% begin near 0.45. The list shows a part of the results.

system: NCI-H2228 alectinib-DTP; assay: cell viability relative to vehicle (fraction of vehicle); NCI-H2228 is an ALK-positive lung cancer line and DTP means drug-tolerant persister; higher = less growth inhibition; conditions: 100 nM; treatment time 6 days
Method in brief: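 The 3114-agent TargetMol anti-cancer compound library was tested at 100 nM for 6 days on parental NCI-H2228 cells and on persister cells derived with 1000 nM of a targeted drug for 13 days. ATP readout by the CellTiter-Glo 3D Cell Viability Assay gave cell viability relative to DMSO vehicle-treated cells.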

Compound	cell viability
COc1ccc2c(c1)/C(=C/c1cnc[nH]1)C(=O)N2	1.01
COc1ccc(C[C@H]2NC[C@H](O)[C@H]2OC(C)=O)cc1 [Anisomycin]	0.661
COc1ccc2c(c1)[nH]c1c(C)nccc12 [Harmine]	0.801
CN(C)NC(=O)CCC(=O)O [Daminozide]	0.957
NCCc1c[nH]c2ccc(O)cc12 [Serotonin hydrochloride]	0.98
C/C=C(\C)C(=O)N[C@@H](c1ccccc1)[C@@H](O)C(=O)O[C@H]1C[C@@]2(O)[C@@H](OC(=O)c3ccccc3)[C@@H]3[C@]4(OC(C)=O)CO[C@@H]4C[C@H](O)[C@@]3(C)C(=O)[C@H](OC(C)=O)C(=C1C)C2(C)C [Cephalomannine]	0.508
C[C@@H]1CN(Cc2ccc(F)cc2)CCN1C(=O)COc1ccc(Cl)cc1NC(N)=O	1.07
COc1cc([C@@H]2c3cc4c(cc3[C@H](O)[C@H]3COC(=O)[C@H]23)OCO4)cc(OC)c1OC [Podophyllotoxin]	0.634
CC(C)=CCC[C@](C)(O)[C@H]1CC[C@]2(C)[C@@H]1[C@H](O)C[C@@H]1[C@@]3(C)CC[C@H](O)C(C)(C)[C@@H]3[C@@H](O[C@@H]3O[C@H](CO)[C@@H](O)[C@H](O)[C@H]3O)C[C@]12C [Ginsenoside Rh1]	0.928
C[C@@H]1CCC=C2C(=O)C[C@H]3OOC(C)(C)[C@H]3[C@]21C [Nardosinone]	0.941
C#C[C@]1(O)C=C[C@H]2[C@@H]3CCC4=CC(=O)CC[C@@H]4[C@H]3CC[C@@]21CC [Gestodene]	0.945
CC(C)(C)NCC(O)c1ccccc1Cl (stereo not given) [Tulobuterol hydrochloride]	0.856
Cc1cccc([C@H](C)c2c[nH]cn2)c1C [Dexmedetomidine HCl]	0.944
Cc1cccc([C@H](C)c2c[nH]cn2)c1C [Dexmedetomidine]	0.893
C[C@H]1C(=O)O[C@@H]2CCN3CC=C(COC(=O)[C@](C)(O)[C@]1(C)O)[C@H]23 [Monocrotaline]	0.941
CO[C@]12C[C@@H](COC(=O)c3cncc(Br)c3)CN(C)[C@@H]1Cc1cn(C)c3cccc2c13 [Nicergoline]	0.935
CC(=O)OC12COC1CC(O)C1(C)C(=O)C(O)C3=C(C)C(O)CC(O)(C(OC(=O)c4ccccc4)C21)C3(C)C (stereo not given) [10-Deacetylbaccatin III]	1.01
C[N+]12CCC(CC1)C(OC(=O)C(O)(c1ccccc1)c1ccccc1)C2 (stereo not given) [Clidinium bromide]	0.958
CC1=C[C@H]2[C@@]3(O)[C@H](C)[C@@H](O)[C@]4(O)[C@H]([C@@H]3C=C(CO)C[C@]2(O)C1=O)C4(C)C [Phorbol]	0.999
O=P1(NCCCl)OCCCN1CCCl (stereo not given) [Ifosfamide]	1.15
CC(C)c1c(CN(C)C(C)Cc2ccccc2)n(C)n(-c2ccccc2)c1=O (stereo not given) [Famprofazone]	1.09
N#C/C=C1/C=C[C@@H](O)[C@H](O)[C@H]1O[C@@H]1O[C@H](CO)[C@@H](O)[C@H](O)[C@H]1O [Griffonin]	0.984
CN1C(=O)COc2c(C(=O)NC3CN4CCC3CC4)cc(Cl)cc21 (stereo not given) [Azasetron hydrochloride]	0.929
Cc1cccc(C)c1NC1=NCCCS1 [Xylazine hydrochloride]	0.914

Compound	cell viability
O=C1CCC[C@@H]2[C@H]3CCCN4CCC[C@@H](CN12)[C@@H]34 [(+)-Matrine]	0.939
Clc1ccc(C(OCCN2CCCCC2)c2ccccc2)cc1 (stereo not given) [Cloperastine hydrochloride]	1
Clc1ccccc1C(c1ccccc1)(c1ccccc1)n1cccn1	0.859
O=C(N[C@H]1CN2CCC1CC2)c1cc2cccc(Cl)c2s1 [EVP-6124 hydrochloride]	0.906
CC(=O)O[C@H]1[C@H]2O[C@]23[C@@H]2CC[C@@H]4C[C@@H](O)CC[C@]4(C)[C@H]2CC[C@]3(C)[C@H]1c1ccc(=O)oc1 [Cinobufagin]	0.142
NCCc1c[nH]c2ccccc12 [Tryptamine]	1.12
Cc1cc(SCc2sc(-c3ccc(C(F)(F)F)c(F)c3)nc2C)ccc1OCC(=O)O	1.09
O=C(O)C1C2CCC(O2)C1C(=O)O (stereo not given) [Sodium Demethylcantharidate]	1.11
CC(C)(C)[C@]1(O)CC2OC(=O)CC23C(=O)OC2OC(=O)[C@H](O)C231 (stereo not given in full) [Bilobalide]	1
CCCC(C)(C)c1ccc2c(c1)OC(C)(C)[C@@H]1CC=C(C)C[C@@H]21	0.862
CC1=C[C@]23C(=O)[C@@H](C=C(CO)[C@@H](O)[C@]2(O)[C@H]1O)[C@H]1[C@@H](C[C@H]3C)C1(C)C [Ingenol]	1.17
CCC1(c2ccc(N)cc2)CCC(=O)NC1=O (stereo not given) [Aminoglutethimide]	1.03
CCN(C)C(=O)Oc1cccc([C@H](C)N(C)C)c1 [Rivastigmine]	1.02
CCN(C)C(=O)Oc1cccc([C@H](C)N(C)C)c1 [Rivastigmine tartrate]	0.935
CN(C)C(=O)Oc1cc(OC(=O)N(C)C)cc(C(O)CNC(C)(C)C)c1 (stereo not given) [Bambuterol hydrochloride]	0.843
NCCc1ccc(O)cc1 [Tyramine]	0.998
CCn1cc(C(=O)O)c(=O)c2cc3c(cc21)OCO3 [Oxolinic acid]	1
C[C@]12CC[C@H](O)C[C@@H]1CC[C@@H]1[C@@H]2CC[C@]2(C)C(=O)CC[C@@H]12 [Epiandrosterone]	0.814
C[N+]1(C)[C@@H]2C[C@@H](OC(=O)[C@H](CO)c3ccccc3)C[C@H]1[C@@H]1O[C@@H]12 [Methscopolamine]	0.998
O=C1CCC[C@@H]2[C@H]3CCCN4CCC[C@H](CN12)[C@@H]34 [Sophoridine]	0.886
O=C(/C=C/c1ccccc1)OC[C@H]1O[C@@H](O[C@@H]2OC=C[C@H]3[C@H](O)[C@@H]4O[C@]4(CO)[C@@H]23)[C@H](O)[C@@H](O)[C@@H]1O [Picroside I]	1.06
C=C1CC[C@H]2[C@@H](/C=C(\C)C(=O)[C@@]3(O)C[C@H](C)[C@H](O)[C@@H]3[C@@H]1O)C2(C)C [Lathyrol]	1.08
Cc1c(Cl)cccc1S(=O)(=O)Nc1nc(CC(=O)N2CCN(C)CC2)cs1	0.928
COc1ccc2c(c[n+](C)c3c4cc5c(cc4ccc23)OCO5)c1OC [Chelerythrine]	1.03

Compound	cell viability
COc1ccc2c(c[n+](C)c3c4cc5c(cc4ccc23)OCO5)c1OC [Chelerythrine chloride]	1.04
O=c1[nH]c2ccccc2n1C1CCN(Cc2ccc(-c3[nH]c4cc5ncnc5cc4nc3-c3ccccc3)cc2)CC1 [AKT inhibitor VIII]	0.865
COc1cc(C2OCC3C(c4cc(OC)c(O[C@@H]5O[C@H](CO)[C@@H](O)[C@H](O)[C@H]5O)c(OC)c4)OCC23)cc(OC)c1O[C@H]1O[C@@H](CO)[C@H](O)[C@@H](O)[C@@H]1O (stereo not given in full) [Eleutheroside E]	0.943
C[C@H](Nc1ncnc2[nH]cnc12)c1nc2ccc(F)cc2c(=O)n1-c1ccccc1 [Acalisib]	0.875
COc1ccc(CCN2CCC(Nc3nc4ccccc4n3Cc3ccc(F)cc3)CC2)cc1 [Astemizole]	1.04
CC(=O)O[C@H]1C[C@H](O[C@H]2[C@@H](O)C[C@H](O[C@H]3[C@@H](O)C[C@H](O[C@H]4CC[C@@]5(C)[C@H](CC[C@@H]6[C@@H]5C[C@@H](O)[C@]5(C)[C@@H](C7=CC(=O)OC7)CC[C@]65O)C4)O[C@@H]3C)O[C@@H]2C)O[C@H](C)[C@H]1O[C@@H]1O[C@H](CO)[C@@H](O)[C@H](O)[C@H]1O [Lanatoside C]	0.49
Cc1c([C@H](C)[C@@H]2NC[C@@H](C)C[C@H]2O)ccc2c1C[C@H]1[C@H]2CC=C2C[C@@H](O)CC[C@@]21C [Veratramine]	0.894
CC(=O)Nc1ccc(OC[C@](C)(O)C(=O)Nc2ccc([N+](=O)[O-])c(C(F)(F)F)c2)cc1 [Andarine]	0.917
C[C@](O)(COc1ccc(C#N)cc1)C(=O)Nc1ccc(C#N)c(C(F)(F)F)c1 [Ostarine]	0.904
C=CCCCCCCCCC(=O)O[C@H]1CC[C@H]2[C@@H]3CCC4=CC(=O)C=C[C@]4(C)[C@H]3CC[C@]12C [Parenabol]	1.04
CNCC(=O)c1ccc(O)c(O)c1 [Adrenalone hydrochloride]	0.895
CC(C)[C@H](N)C(=O)N1CCC[C@H]1B(O)O [Talabostat mesylate]	1.05
C=C(C)[C@H]1Cc2c(ccc3c2O[C@@H]2COc4cc(OC)c(OC)cc4[C@@H]2C3=O)O1 [Rotenone]	0.851
COC(=O)C1=CCCN(C)C1 [Arecoline HBr]	1.13
C[C@]12CC[C@H]3[C@@H](CC[C@@]45O[C@@H]4C(O)=C(C#N)C[C@]35C)[C@@H]1CC[C@@H]2O [Trilostane]	0.896
N#Cc1c(Oc2cccc(OS(=O)(=O)CCCC(F)(F)F)c2)cccc1C(F)(F)F	0.899
C[N+](C)(C)CCCCCCCCCC[N+](C)(C)C [Decamethonium bromide]	0.953
C[C@]12CC[C@H](O)C[C@H]1CC[C@@H]1[C@@H]2CC[C@]2(C)[C@@](O)(c3ccoc3)CC[C@]12O [Rostafuroxin]	0.988
COc1ccc(/C=C/C=C2C(=O)NC(=O)NC2=O)cc1	0.972
CC(CCc1ccccc1)NC(C)C(O)c1ccc(O)cc1 (stereo not given) [Nylidrin hydrochloride]	1.02
O=C(O)CNC(=O)c1c(O)c2ccccc2n(Cc2ccccc2)c1=O	0.865
COc1cc2c3c(c1OC)-c1ccccc1C[C@H]3N(C)CC2 [Nuciferine]	0.958
